{"source": "paper PMC12136788", "binders": {"B1": {"name": "160274744_160274864_4193_CDS_ENSG00000109756_ENST00000264431|human|control|control (ssRNA)", "RNA": "GGGAGUUCUACAGUCCGACGAUCGUGAGUAUGCCCGAAUGGAAGAGUCUCCCAGCUUCUCUGGUGCUGGAUCGUCUGUAUAUUAUCAUGGGAGCCACUUGAGCAUGACGUCCAGCUCCCACGGCCACUGUCAGCAGCAUCAAGCAACAGAGGAUUGAGCAUCA"}, "B2": {"name": "44146565_44147813_1356_3pUTR_ENSMUSG00000035696_ENSMUST00000045793|mouse|control|control (ssRNA)", "RNA": "GGGAGUUCUACAGUCCGACGAUCUCAAUAUCUGCUUUAGUCAGUCCCCGAGGUUUCGCCUCUCCCAGUCUCUCCGCCAAGUUUAACAGGGCCUCAUAAUUUUCAACUUCUCCGUCUUCUACAUCUAAUUCAAAGCUGAAGGUUCAACAGAGGAUUGAGCAUCA"}, "B3": {"name": "74703758_74703878_3027_3pUTR_ENSG00000104343_ENST00000602593|human|control|control (ssRNA)", "RNA": "GGGAGUUCUACAGUCCGACGAUCGAUAUUCUGGUUGUCUUUCAACAAUGCAUUACAGAGAAAUAUUCUUUUUAUUAUUACAAGCCAUUAAUUGCUCUCUGUAGAGCAAUGACUCAGAUAAAUGCCUUAUGACUUUUAAUAAUGCAACAGAGGAUUGAGCAUCA"}, "B4": {"name": "chr7:71034301:71034302:-_ENSMUSG00000052040_ENSMUST00000063694|mus_mus|FALSE|FALSE (ssRNA)", "RNA": "GGGAGUUCUACAGUCCGACGAUCGGACUUUGGAAUAAAAUUCCUGAAUCUGGAAUGUGAAUUCCUGAGACAUGAAAUGUGUUCAGAGUGUGGCUUUCUCUGCCUCACACAAAUGACUUUGGGAGGGACUACACUUUGGAACUCCAACAGAGGAUUGAGCAUCA"}, "B5": {"name": "chr2:25464519:25464520:-_ENSG00000119772_ENST00000380746|hu_mus|FALSE|FALSE (ssRNA)", "RNA": "GGGAGUUCUACAGUCCGACGAUCGUACAUGAUCUUUCCCUGGUGCCGCACCAUGCCCACCGUGAUGGAGUCCUCACACACCUCGGAGGCAAUGUAGCGGUCCACUUGGAUGCCCAGGUCCUUCAGCACCAGGAGCCCUGUAGCCAACAGAGGAUUGAGCAUCA"}, "B6": {"name": "chr17:73774127:73774128:-_ENSG00000132475_ENST00000254810|hu_mus|motif|central (ssRNA)", "RNA": "GGGAGUUCUACAGUCCGACGAUCUGACAAGACUCCCCACCACUUGUGAAUGUAAAACAUUUAAUUUAAAAAUGUUGAACACGGCAAUAUAUAAAAUAGCUAUUAUAAAUGCACAUAGUGUAUUCUAUAGCUGCCAGGUUUACUCAACAGAGGAUUGAGCAUCA"}, "B7": {"name": "chr1:153634984:153634985:-_ENSG00000143621_ENST00000361891|hu_hu|motif|central (ssRNA)", "RNA": "GGGAGUUCUACAGUCCGACGAUCUUCCUCUCCUUCCUUCUUCUCUGGUGGCUUCUCAUAAGCCUUUUCUGAAGGUGUUACGGUCACUCCAUCCCAGGUAGAUAUUUCAGAAGCAAGAUAGCUGGCAUCACCCUCCUGGCCAAGCAACAGAGGAUUGAGCAUCA"}, "B8": {"name": "chr10:60036935:60036936:+_ENSG00000122873_ENST00000333926|hu_mus|FALSE|FALSE (ssRNA)", "RNA": "GGGAGUUCUACAGUCCGACGAUCCUGAAGAUUCACCAUAGCUUUGGUGCGAUUCUCUUUAGCGUAGAACUUCUUGUAAGCCAGGUAACCGAGAGCGGCUGUGCCAGCAGCAAAGGUGACGGCCGCGAUCCACUCAACUCGCACCAACAGAGGAUUGAGCAUCA"}, "B9": {"name": "chr1:58468927:58468928:-_ENSMUSG00000026034_ENSMUST00000148330|mus_mus|mus_mus_mus_hu_False|68_108 (ssRNA)", "RNA": "GGGAGUUCUACAGUCCGACGAUCAAUCUAUAAUUACGAUGUUCAUUACCUUAGCUAUGUACUUAAUUUAAUAAAGCACCCAAACAAAAUAAACAUGGCAAUAUAAAAAUGUUAAGAAUUUACAAAGCUGUACAAAAUAACUUACAACAGAGGAUUGAGCAUCA"}, "B10": {"name": "chr2:228221723:228221724:+_ENSG00000168958_ENST00000354503|hu_mus|motif|central (ssRNA)", "RNA": "GGGAGUUCUACAGUCCGACGAUCGACCAUUUCUCUUUUAGCACGCUCUUUAUUCUCCUCUUCCAGAAGUUGGAGACGUCGGUUUAAUUUGAUUAUCUGACGUCUUAAUGAAGCUGCAUCUACCACAGUCAUGUCAUCUGAAGCCAACAGAGGAUUGAGCAUCA"}, "B11": {"name": "34018048_34018168_882_CDS_ENSMUSG00000039485_ENSMUST00000047935|mouse|control|control (ssRNA)", "RNA": "GGGAGUUCUACAGUCCGACGAUCUCUUGGCUGCUUAAGCUCCUCCACCUCUAAAUUGAUCAUGUACCUCAUCAUGUCUUCAUCUUGGCCACUAAUCAUUGGUGACAGCUGGGGGUGGUUCCGAAAAGCGGUGACCCAGAAACCCAACAGAGGAUUGAGCAUCA"}, "B12": {"name": "chr7:141441981:141441982:+_ENSG00000106028_ENST00000265304|hu_mus|hu_hu_hu_mus_False|18_88 (ssRNA)", "RNA": "GGGAGUUCUACAGUCCGACGAUCCUCAUGUCUUACAAACUGACGAAGUACCUGUAACACAGGUCUUCGAAACAUGGCUUCUGUUUUUCUUACAACCUAAUCUUUAGGCUUUUCCUACCUGACGAUCAGAAAAGAGAAAAAUGACAACAGAGGAUUGAGCAUCA"}, "B13": {"name": "chr1:93301758:93301759:+_ENSG00000122406_ENST00000370321|hu_hu|FALSE|FALSE (ssRNA)", "RNA": "GGGAGUUCUACAGUCCGACGAUCGUAUUCAUCACCAGUCACCUCCACUUGGCCUUCAUAGAUCUUGUCCAUGCCAAACCUAUUGAGAAGCCUGCGGGCCAGCAGCAGGCCAGUACAAUAUGCUGCAGCAUAAUUUGUCAGGCCCAACAGAGGAUUGAGCAUCA"}, "B14": {"name": "chr12:32625335:32625336:-_ENSMUSG00000002996_ENSMUST00000172314|mus_mus|FALSE|FALSE (ssRNA)", "RNA": "GGGAGUUCUACAGUCCGACGAUCUGGAUAUUCUUGAUGAGAUACAUCUGAACUUAGCUGGUAUAUGGCAGAUUGGGUAGGGUCACUUUGAACAGCCUGAAGUUCAGGAAGGUCAUCAAGCUCCAUGUGCUCAUCACAGGAGUUCAACAGAGGAUUGAGCAUCA"}, "B15": {"name": "chr6:51417264:51417265:-_ENSMUSG00000004980_ENSMUST00000090002|mus_hu|FALSE|FALSE (ssRNA)", "RNA": "GGGAGUUCUACAGUCCGACGAUCAAGAGCUUACGGAACUGUUCCUUUUCUCUCUUUUUCCUCUCCAAAGGAACAGUUUCUAAAGUUUUCUCCAUCGCGGACUCAGUCGCUUCAGCCCGAUUUCCCGCAGCCGAGCGAGAUGAGCAACAGAGGAUUGAGCAUCA"}, "B16": {"name": "chrX:16870723:16870724:-_ENSG00000102054_ENST00000404022|hu_mus|motif|central (ssRNA)", "RNA": "GGGAGUUCUACAGUCCGACGAUCCUUAUGCGAUUCAAAGGUGUGGAGUUUUAGUUUCAGAUUACGCAGGUCCCAUAAAGCGGCAGUCUUAUCUGCAGAGCCAGUUGCCAGAAUGAACUCGCUGUAGGGAUUGAAUGAGAGGCACAACAGAGGAUUGAGCAUCA"}, "B17": {"name": "chr9:24234919:24234920:-_ENSMUSG00000043067_ENSMUST00000142064|mus_mus|motif|central (ssRNA)", "RNA": "GGGAGUUCUACAGUCCGACGAUCGUAAACCAACUCUCCAUGUUCAAAUUGUUGUUUUCUUGUAUGUGUCCGUUGUUUAGCGGCGACACCCCGCAUAUCAUUAAAAAUCUUUCUAACAAUGGCAGCGACGGUGACCAGAACCACCAACAGAGGAUUGAGCAUCA"}, "B18": {"name": "chr9:101115835:101115836:-_ENSMUSG00000043154_ENSMUST00000075941|mus_mus|FALSE|FALSE (ssRNA)", "RNA": "GGGAGUUCUACAGUCCGACGAUCUGUCAGAUAAACCUUAGUUGAUGGUACAGGAUUACUGUGAUAACUGAGUCCUCCCAGGCCUUAAGUGAUCCAUUUUUUUUUUUUUUUUUUUUUUUGGUGGGCGACAGAGAAACCUCAGUGCAACAGAGGAUUGAGCAUCA"}, "B19": {"name": "chr4:144461564:144461565:+_ENSG00000153147_ENST00000283131|hu_hu|FALSE|FALSE (ssRNA)", "RNA": "GGGAGUUCUACAGUCCGACGAUCCCUCCCUUGUUGAAUGACUAUUGAAUCCAGUCUGAGUUUCAUCUCAGCACGUUCUACUAUUCUUUCUUCUACAGUGUUAUCAGUUAUAAAGCGGAACACUCUGACUGUCUUAGUCUGCCCCAACAGAGGAUUGAGCAUCA"}, "B20": {"name": "chr2:201680209:201680210:+_ENSG00000082153_ENST00000409600|hu_hu|FALSE|FALSE (ssRNA)", "RNA": "GGGAGUUCUACAGUCCGACGAUCGUCAUCUGCCAGUGUACCACCUGGGGCCAGCAUUCCACCAGCCACCAGAAUGUCAAAGAGUGUUUCUGCAUAUCGACGGUAAUCAAGUUUUGCUCCAGAAGCAUCAAGAAACUUAGCUACCAACAGAGGAUUGAGCAUCA"}, "B21": {"name": "113732717_113735539_1954_CDS_ENSG00000126217_ENST00000375604|human|control|control (ssRNA)", "RNA": "GGGAGUUCUACAGUCCGACGAUCGCUCAUCACGUGCCUGCGCAGGAUGGCCAGGCUUUCCUCCUCCUCCCCCGCUGAGCCGCGGCCCUGCCGGCUCUCACUCAUCUCACUCUUGGCCCUCCGGUAGGGCCCUCUCCGGAGCGCCAACAGAGGAUUGAGCAUCA"}, "B22": {"name": "38194907_38196095_1283_CDS_ENSG00000147548_ENST00000316985|human|control|control (ssRNA)", "RNA": "GGGAGUUCUACAGUCCGACGAUCCCACACAAGAUCGCCAACCUGAAACUUAACACCAGUGGACACUUCCGUUGUUGGAACAGAAGAUAGUAUUGGCUGAACUGGGGCUUCCUCUUUUAGUACUGGUUCUUCCCUUGGUUUUUCCAACAGAGGAUUGAGCAUCA"}}, "note": "The other results are listed elsewhere or left out.", "data": [{"molecular_target": "T1, UNK ZnF1-3 (human, UniProt Q9C0B0 31-174)", "T1 sequence": "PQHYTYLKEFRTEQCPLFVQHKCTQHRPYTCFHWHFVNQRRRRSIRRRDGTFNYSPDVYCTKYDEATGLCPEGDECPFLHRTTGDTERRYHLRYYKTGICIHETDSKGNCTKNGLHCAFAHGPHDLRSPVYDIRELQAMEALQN", "test": "nsRBNS (natural sequence RNA bind-n-seq); RBNS binding buffer (assumed for nsRBNS): 25 mM Tris pH 7.5, 150 mM KCl, 3 mM MgCl2, 0.01% Triton X-100, 500 ug/ml BSA, 20 U/ml SUPERase-In, 4 C; UNK is unkempt and MSI1 is Musashi-1; names of the RNAs are library labels; protein concentration not given here; high values mean tight binding", "units": {"binding signal": "enrichment R"}, "values": [{"binder": "B1", "binding signal": 0.755}, {"binder": "B2", "binding signal": 0.925}, {"binder": "B3", "binding signal": 0.371}, {"binder": "B4", "binding signal": 0.602}, {"binder": "B5", "binding signal": 0.797}, {"binder": "B6", "binding signal": 1.13}, {"binder": "B7", "binding signal": 1.07}, {"binder": "B8", "binding signal": 0.938}, {"binder": "B9", "binding signal": 0.792}, {"binder": "B10", "binding signal": 0.719}, {"binder": "B11", "binding signal": 1.2}, {"binder": "B12", "binding signal": 0.616}, {"binder": "B13", "binding signal": 0.75}, {"binder": "B14", "binding signal": 0.618}, {"binder": "B15", "binding signal": 0.4}, {"binder": "B16", "binding signal": 1.25}, {"binder": "B17", "binding signal": 0.874}, {"binder": "B18", "binding signal": 0.924}, {"binder": "B19", "binding signal": 0.797}, {"binder": "B20", "binding signal": 0.782}, {"binder": "B21", "binding signal": 0.83}, {"binder": "B22", "binding signal": 0.947}]}]}
